# Laboratory results: the supplement of paper PMC8728848
# This is one part of the list.
# Columns and labels:
# Assay in all cases: glycan array binding signal (z-score within array); higher = stronger binding
# Details in all cases: glycan notation: IUPAC condensed, linker removed
# [1] = molecular target: Fuc(a1-2)[GalNAc(a1-3)]Gal(b1-4)GlcNAc(b1-3)GalNAc
# Summary of the method: (§1)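 The Consortium for Functional Glycomics database supplied 3228 glycan arrays, of which those lacking an available protein sequence were dropped. The binding signal, a within-array Z-score, was averaged across arrays of the same protein sequence and across linkers. Negative scores can be read as non-binding.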
# [2] = molecular target: Fuc(a1-2)[GalNAc(a1-3)]Gal(b1-4)[Fuc(a1-3)]GlcNAc
# Summary of the method: as §1
# [3] = molecular target: Fuc(a1-2)[GalNAc(a1-3)]Gal(b1-4)[Fuc(a1-3)]GlcNAc(b1-3)GalNAc
# Summary of the method: as §1
# [4] = molecular target: Fuc(a1-2)[GalNAc(a1-4)]Gal(b1-4)GlcNAc
# Summary of the method: as §1
# [5] = molecular target: Fuc(a1-2)[GalNAc(b1-3)]Gal
# Summary of the method: as §1
# Fuc(a1-3)GlcNAc = molecular target: Fuc(a1-3)GlcNAc
# Summary of the method: as §1
# [6] = molecular target: Fuc(a1-3)[Gal(b1-4)]Glc6S
# Summary of the method: as §1
# [7] = molecular target: Fuc(a1-3)[Gal(b1-4)]GlcNAc
# Summary of the method: as §1
# [8] = molecular target: Fuc(a1-3)[Gal(b1-4)]GlcNAc(b1-2)Man(a1-3)[Fuc(a1-3)[Gal(b1-4)]GlcNAc(b1-2)Man(a1-6)]Man(b1-4)GlcNAc(b1-4)GlcNAc
# Summary of the method: as §1
# [9] = molecular target: Fuc(a1-3)[Gal(b1-4)]GlcNAc(b1-2)Man(a1-3)[Fuc(a1-3)[Gal(b1-4)]GlcNAc(b1-2)Man(a1-6)]Man(b1-4)GlcNAc(b1-4)[Fuc(a1-6)]GlcNAc
# Summary of the method: as §1
# [10] = molecular target: Fuc(a1-3)[Gal(b1-4)]GlcNAc(b1-3)Gal(b1-3)[Fuc(a1-4)]GlcNAc
# Summary of the method: as §1
# [11] = molecular target: Fuc(a1-3)[Gal(b1-4)]GlcNAc(b1-3)GalNAc
# Summary of the method: as §1
# [12] = molecular target: Fuc(a1-3)[Gal(b1-4)]GlcNAc(b1-4)Gal(b1-4)[Fuc(a1-3)]GlcNAc
# Summary of the method: as §1
# [13] = molecular target: Fuc(a1-3)[Gal(b1-4)]GlcNAc(b1-4)Gal(b1-4)[Fuc(a1-3)]GlcNAc(b1-4)Gal(b1-4)[Fuc(a1-3)]GlcNAc
# Summary of the method: as §1
# [14] = molecular target: Fuc(a1-3)[Gal(b1-4)]GlcNAc(b1-6)[Gal(b1-3)GlcNAc(b1-3)]Gal(b1-4)Glc
# Summary of the method: as §1
# [15] = molecular target: Fuc(a1-3)[Gal(b1-4)]GlcNAc6S
# Summary of the method: as §1
# [16] = molecular target: Fuc(a1-3)[Gal3S(b1-4)]GlcNAc
# Summary of the method: as §1
# [17] = molecular target: Fuc(a1-3)[Gal3S(b1-4)]GlcNAc6S
# Summary of the method: as §1
# [18] = molecular target: Fuc(a1-3)[GalNAc(b1-4)]GlcNAc
# Summary of the method: as §1
# Fuc(a1-4)GlcNAc = molecular target: Fuc(a1-4)GlcNAc
# Summary of the method: as §1
# Fuc(b1-3)GlcNAc = molecular target: Fuc(b1-3)GlcNAc
# Summary of the method: as §1
# Gal(a1-2)Gal = molecular target: Gal(a1-2)Gal
# Summary of the method: as §1
# Gal(a1-3)Gal = molecular target: Gal(a1-3)Gal
# Summary of the method: as §1
# Gal(a1-3)Gal(b1-3)GlcNAc = molecular target: Gal(a1-3)Gal(b1-3)GlcNAc
# Summary of the method: as §1
# [19] = molecular target: Gal(a1-3)Gal(b1-3)GlcNAc(b1-2)Man(a1-3)[Gal(a1-3)Gal(b1-3)GlcNAc(b1-2)Man(a1-6)]Man(b1-4)GlcNAc(b1-4)GlcNAc
# Summary of the method: as §1
# [20] = molecular target: Gal(a1-3)Gal(b1-3)GlcNAc(b1-3)GalNAc
# Summary of the method: as §1
# [21] = molecular target: Gal(a1-3)Gal(b1-3)[Fuc(a1-4)]GlcNAc(b1-2)Man(a1-3)[Gal(a1-3)Gal(b1-3)[Fuc(a1-4)]GlcNAc(b1-2)Man(a1-6)]Man(b1-4)GlcNAc(b1-4)GlcNAc
# Summary of the method: as §1
# Gal(a1-3)Gal(b1-4)Glc = molecular target: Gal(a1-3)Gal(b1-4)Glc
# Summary of the method: as §1
# Gal(a1-3)Gal(b1-4)GlcNAc = molecular target: Gal(a1-3)Gal(b1-4)GlcNAc
# Summary of the method: as §1
# [22] = molecular target: Gal(a1-3)Gal(b1-4)GlcNAc(b1-3)GalNAc
# Summary of the method: as §1
# [23] = molecular target: Gal(a1-3)Gal(b1-4)[Fuc(a1-3)]GlcNAc
# Summary of the method: as §1
# [24] = molecular target: Gal(a1-3)Gal(b1-4)[Fuc(a1-3)]GlcNAc(b1-2)Man(a1-3)[Gal(a1-3)Gal(b1-4)[Fuc(a1-3)]GlcNAc(b1-2)Man(a1-6)]Man(b1-4)GlcNAc(b1-4)GlcNAc
# Summary of the method: as §1
# Gal(a1-3)GalNAc = molecular target: Gal(a1-3)GalNAc
# Summary of the method: as §1
# [25] = molecular target: Gal(a1-3)[Gal(a1-4)]Gal(b1-4)GlcNAc
# Summary of the method: as §1
# [26] = molecular target: Gal(a1-4)Gal(b1-3)GlcNAc(b1-2)Man(a1-3)[Gal(a1-4)Gal(b1-3)GlcNAc(b1-2)Man(a1-6)]Man(b1-4)GlcNAc(b1-4)GlcNAc
# Summary of the method: as §1
# Gal(a1-4)Gal(b1-4)Glc = molecular target: Gal(a1-4)Gal(b1-4)Glc
# Summary of the method: as §1
# Gal(a1-4)Gal(b1-4)GlcNAc = molecular target: Gal(a1-4)Gal(b1-4)GlcNAc
# Summary of the method: as §1
# [27] = molecular target: Gal(a1-4)Gal(b1-4)GlcNAc(b1-2)Man(a1-3)[Gal(a1-4)Gal(b1-4)GlcNAc(b1-2)Man(a1-6)]Man(b1-4)GlcNAc(b1-4)GlcNAc
# Summary of the method: as §1
# [28] = molecular target: Gal(a1-4)Gal(b1-4)GlcNAc(b1-3)Gal(b1-4)Glc
# Summary of the method: as §1
# Gal(a1-4)GlcNAc = molecular target: Gal(a1-4)GlcNAc
# Summary of the method: as §1
# Gal(a1-6)Glc = molecular target: Gal(a1-6)Glc
# Summary of the method: as §1
# Gal(b1-2)Gal = molecular target: Gal(b1-2)Gal
# Summary of the method: as §1
# Gal(b1-3)Gal = molecular target: Gal(b1-3)Gal
# Summary of the method: as §1
# Gal(b1-3)Gal(b1-4)GlcNAc = molecular target: Gal(b1-3)Gal(b1-4)GlcNAc
# Summary of the method: as §1
# [29] = molecular target: Gal(b1-3)Gal(b1-4)GlcNAc(b1-2)Man(a1-3)[Gal(b1-3)Gal(b1-4)GlcNAc(b1-2)Man(a1-6)]Man(b1-4)GlcNAc(b1-4)GlcNAc
# Summary of the method: as §1
# Gal(b1-3)GalNAc = molecular target: Gal(b1-3)GalNAc
# Summary of the method: as §1
# [30] = molecular target: Gal(b1-3)GalNAc(a1-3)[Fuc(a1-2)]Gal(b1-4)Glc
# Summary of the method: as §1
# [31] = molecular target: Gal(b1-3)GalNAc(a1-3)[Fuc(a1-2)]Gal(b1-4)GlcNAc
# Summary of the method: as §1
# [32] = molecular target: Gal(b1-3)GalNAc(b1-3)Gal(a1-4)Gal(b1-4)Glc
# Summary of the method: as §1
# [33] = molecular target: Gal(b1-3)GalNAc(b1-4)Gal(b1-4)Glc
# Summary of the method: as §1
# [34] = molecular target: Gal(b1-3)GalNAc(b1-4)[Neu5Ac(a2-3)]Gal(b1-4)Glc
# Summary of the method: as §1
# Gal(b1-3)GlcNAc = molecular target: Gal(b1-3)GlcNAc
# Summary of the method: as §1
# [35] = molecular target: Gal(b1-3)GlcNAc(a1-6)Gal(b1-4)GlcNAc
# Summary of the method: as §1
# [36] = molecular target: Gal(b1-3)GlcNAc(b1-2)Man(a1-3)[Gal(b1-3)GlcNAc(b1-2)Man(a1-6)]Man(b1-4)GlcNAc(b1-4)GlcNAc
# Summary of the method: as §1
# [37] = molecular target: Gal(b1-3)GlcNAc(b1-2)Man(a1-3)[Gal(b1-3)GlcNAc(b1-2)Man(a1-6)]Man(b1-4)GlcNAc(b1-4)[Fuc(a1-6)]GlcNAc
# Summary of the method: as §1
# [38] = molecular target: Gal(b1-3)GlcNAc(b1-2)[Gal(b1-3)GlcNAc(b1-6)]Man(a1-6)[Gal(b1-3)GlcNAc(b1-2)Man(a1-3)]Man(b1-4)GlcNAc(b1-4)GlcNAc
# Summary of the method: as §1
# [39] = molecular target: Gal(b1-3)GlcNAc(b1-3)Gal(b1-3)GlcNAc
# Summary of the method: as §1
# [40] = molecular target: Gal(b1-3)GlcNAc(b1-3)Gal(b1-4)Glc
# Summary of the method: as §1
# [41] = molecular target: Gal(b1-3)GlcNAc(b1-3)Gal(b1-4)GlcNAc
# Summary of the method: as §1
# [42] = molecular target: Gal(b1-3)GlcNAc(b1-3)Gal(b1-4)GlcNAc(b1-6)[Gal(b1-3)GlcNAc(b1-3)]Gal(b1-4)Glc
# Summary of the method: as §1
binder,measurement,setting,value
Gal 7 (Canis lupus) (protein) MAGSSNVPHKTSLPEGIRVGTVMRIRGVVPNKAGRFYVNLLCGEAPGSEAALHFNPRLDESTVVFNTLEQGAWGREERGTGIPFQRGQPFDVLLIATDEGFKAVVGDSEYHHFRYRIPPARVRLLEVGGDLQLESVSVF,glycan array binding signal (z-score),[1],-0.183
same,glycan array binding signal (z-score),[2],-0.209
same,glycan array binding signal (z-score),[3],-0.164
same,glycan array binding signal (z-score),[4],-0.216
same,glycan array binding signal (z-score),[5],-0.219
same,glycan array binding signal (z-score),Fuc(a1-3)GlcNAc,-0.217
same,glycan array binding signal (z-score),[6],-0.208
same,glycan array binding signal (z-score),[7],-0.204
same,glycan array binding signal (z-score),[8],-0.211
same,glycan array binding signal (z-score),[9],-0.18
same,glycan array binding signal (z-score),[10],-0.217
same,glycan array binding signal (z-score),[11],-0.21
same,glycan array binding signal (z-score),[12],-0.212
same,glycan array binding signal (z-score),[13],-0.191
same,glycan array binding signal (z-score),[14],-0.163
same,glycan array binding signal (z-score),[15],-0.197
same,glycan array binding signal (z-score),[16],-0.205
same,glycan array binding signal (z-score),[17],-0.209
same,glycan array binding signal (z-score),[18],-0.213
same,glycan array binding signal (z-score),Fuc(a1-4)GlcNAc,-0.208
same,glycan array binding signal (z-score),Fuc(b1-3)GlcNAc,-0.22
same,glycan array binding signal (z-score),Gal(a1-2)Gal,-0.207
same,glycan array binding signal (z-score),Gal(a1-3)Gal,-0.202
same,glycan array binding signal (z-score),Gal(a1-3)Gal(b1-3)GlcNAc,-0.187
same,glycan array binding signal (z-score),[19],-0.19
same,glycan array binding signal (z-score),[20],-0.166
same,glycan array binding signal (z-score),[21],-0.196
same,glycan array binding signal (z-score),Gal(a1-3)Gal(b1-4)Glc,-0.201
same,glycan array binding signal (z-score),Gal(a1-3)Gal(b1-4)GlcNAc,-0.144
same,glycan array binding signal (z-score),[22],-0.204
same,glycan array binding signal (z-score),[23],-0.2
same,glycan array binding signal (z-score),[24],-0.194
same,glycan array binding signal (z-score),Gal(a1-3)GalNAc,-0.213
same,glycan array binding signal (z-score),[25],-0.202
same,glycan array binding signal (z-score),[26],-0.208
same,glycan array binding signal (z-score),Gal(a1-4)Gal(b1-4)Glc,-0.19
same,glycan array binding signal (z-score),Gal(a1-4)Gal(b1-4)GlcNAc,-0.212
same,glycan array binding signal (z-score),[27],-0.147
same,glycan array binding signal (z-score),[28],1.5
same,glycan array binding signal (z-score),Gal(a1-4)GlcNAc,-0.211
same,glycan array binding signal (z-score),Gal(a1-6)Glc,-0.204
same,glycan array binding signal (z-score),Gal(b1-2)Gal,-0.214
same,glycan array binding signal (z-score),Gal(b1-3)Gal,-0.205
same,glycan array binding signal (z-score),Gal(b1-3)Gal(b1-4)GlcNAc,-0.115
same,glycan array binding signal (z-score),[29],0.325
same,glycan array binding signal (z-score),Gal(b1-3)GalNAc,-0.209
same,glycan array binding signal (z-score),[30],0.252
same,glycan array binding signal (z-score),[31],0.753
same,glycan array binding signal (z-score),[32],-0.204
same,glycan array binding signal (z-score),[33],-0.215
same,glycan array binding signal (z-score),[34],-0.152
same,glycan array binding signal (z-score),Gal(b1-3)GlcNAc,-0.165
same,glycan array binding signal (z-score),[35],-0.199
same,glycan array binding signal (z-score),[36],-0.08
same,glycan array binding signal (z-score),[37],-0.145
same,glycan array binding signal (z-score),[38],-0.061
same,glycan array binding signal (z-score),[39],0.463
same,glycan array binding signal (z-score),[40],0.044
same,glycan array binding signal (z-score),[41],0.155
same,glycan array binding signal (z-score),[42],1.49
